Experimental data as given in PMC4336329 (PLoS ONE, 2015).
In all, about 310,000 compounds went through this assay and about 2,200 (0.71%) showed an effect of 50% or more. Effects have a minus sign here. The list shows a part of the results.

molecular target: human ether-à-go-go-related gene (hERG) potassium channel (human, UniProt Q12809); assay: primary screen, population patch clamp on CHO cells stably expressing hERG
Sequence (Q12809 whole entry, looked up): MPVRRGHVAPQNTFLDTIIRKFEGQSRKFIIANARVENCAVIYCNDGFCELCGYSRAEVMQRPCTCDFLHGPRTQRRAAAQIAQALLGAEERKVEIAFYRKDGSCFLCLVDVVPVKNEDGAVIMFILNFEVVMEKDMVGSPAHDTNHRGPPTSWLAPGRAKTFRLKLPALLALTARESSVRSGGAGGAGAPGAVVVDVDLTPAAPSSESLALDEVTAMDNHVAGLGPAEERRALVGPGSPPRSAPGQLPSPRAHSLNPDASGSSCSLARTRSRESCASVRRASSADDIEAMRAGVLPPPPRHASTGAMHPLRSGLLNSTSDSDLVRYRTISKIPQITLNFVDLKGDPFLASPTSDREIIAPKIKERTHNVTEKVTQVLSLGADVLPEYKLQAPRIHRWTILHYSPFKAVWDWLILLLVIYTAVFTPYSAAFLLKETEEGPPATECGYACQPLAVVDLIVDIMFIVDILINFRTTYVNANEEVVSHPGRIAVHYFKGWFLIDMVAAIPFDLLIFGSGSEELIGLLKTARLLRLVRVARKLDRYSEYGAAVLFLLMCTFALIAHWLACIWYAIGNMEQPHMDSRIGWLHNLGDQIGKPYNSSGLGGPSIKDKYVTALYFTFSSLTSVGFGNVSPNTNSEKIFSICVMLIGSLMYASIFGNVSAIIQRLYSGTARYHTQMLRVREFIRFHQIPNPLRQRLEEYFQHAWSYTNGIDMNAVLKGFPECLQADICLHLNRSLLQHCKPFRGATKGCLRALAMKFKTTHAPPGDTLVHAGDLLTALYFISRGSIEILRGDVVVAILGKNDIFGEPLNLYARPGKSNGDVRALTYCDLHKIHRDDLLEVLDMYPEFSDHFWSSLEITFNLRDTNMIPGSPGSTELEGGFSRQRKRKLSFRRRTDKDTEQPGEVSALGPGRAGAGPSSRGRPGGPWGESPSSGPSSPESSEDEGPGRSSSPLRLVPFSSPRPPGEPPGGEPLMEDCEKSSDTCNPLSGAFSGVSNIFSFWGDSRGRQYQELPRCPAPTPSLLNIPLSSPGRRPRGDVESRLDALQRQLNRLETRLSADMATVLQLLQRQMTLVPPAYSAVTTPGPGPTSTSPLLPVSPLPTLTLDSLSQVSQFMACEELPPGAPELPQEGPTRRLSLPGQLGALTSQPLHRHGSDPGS

Structure (SMILES)	hERG current change (%, negative = inhibition) at 1uM [%]
Cc1ccc(C2C(C(=O)c3cc4ccccc4o3)=C(O)C(=O)N2c2cc(C)on2)cc1 (stereo not shown)	15.4
CCc1ccccc1NC(=S)N1CCC(NC(=O)c2ccc(OC)cc2)CC1	-3.91
Cc1ccc(CN2CCN(C(=O)CC(C)C)CC2)cc1	6.93
O=C1CC(c2ccc(F)c(Br)c2)C2=C(CCCC2=O)N1 (stereo not shown)	2.31
COc1cc2c(cc1OC)C(C)N(C(=S)Nc1ccccc1)CC2 (stereo not shown)	0.862
O=C(O)CC(NC(=O)c1ccncc1)c1ccccc1 (stereo not shown)	7.75
Cc1nc(SC(C)C(=O)NCC2CCCO2)c2cc(-c3ccccc3)sc2n1 (stereo not shown)	-2.98
COc1ccc(-c2cn(-c3cccc(C)c3)c(=O)[nH]2)cc1OC	11
CC(=O)C(c1ccccc1)C(c1ccccc1)C(C)[N+](=O)[O-] (stereo not shown)	12.2
CCn1c(C)c(C)c2cc(C(=O)NCCCN3CCCCCC3)ccc21	1.29
O=Cc1c(-[n+]2ccccc2)nc([O-])n1-c1ccccc1	6.5
CCC(=O)NC(c1cc(Cl)c2ccccc2c1O)C1CC1 (stereo not shown)	10.4
Cc1ccc(Nc2nc(N)nc(CN3CCC(C)CC3)n2)c(C)c1	-18.5
CCC(=O)Nc1nc(C)c(-c2csc(Nc3ccccn3)n2)s1	8.53
O=C(COc1cccc(C(F)(F)F)c1)NNC(=O)Cn1c(=O)cnc2ccccc21	10.1
COCCCN(Cc1ccco1)C(=O)CSc1nc2ncccc2[nH]1	14.9
O=C(NC1CCCC1)C(c1ccc(O)cc1)N(CC1CCCO1)C(=O)C1COc2ccccc2O1 (stereo not shown)	5.42
O=C(c1ccccc1Sc1cccc2ccccc12)N1CCOCC1	7.17
Cc1ccc(C(=O)Nc2c(C)cc(C)c3cccnc23)cc1	14
Cc1cc(C)cc(NC(=O)COC(=O)[C@@H](NC(=O)c2ccco2)C(C)C)c1	-1.71

Structure (SMILES)	hERG current change (%, negative = inhibition) at 1uM [%]
C/C(=N\NC(=O)c1cccc(F)c1)c1ccc(Br)s1	22.6
Cc1csc(SCC(=O)c2c(N)n(C)c(=O)n(C)c2=O)n1	12.6
Nc1nnc(SCC(=O)NCCNC(=O)CSc2nnc(N)s2)s1	13.9
CN(C)C(=O)N1CCCC(C(=O)NCc2ccc(F)cc2Cl)C1 (stereo not shown)	11.2
Cc1ccc(NCC(=O)N/N=C/c2cc3ccccc3nc2Cl)cc1	16.4
Fc1ccc(OCc2nc(-c3ccncc3)n[nH]2)cc1	13.4
CC(OC(=O)Cn1[nH]c(=O)c2ccccc2c1=O)C(=O)c1ccccc1 (stereo not shown)	13
CSc1ccccc1OCc1cc(C(=O)N2CCC(c3ccncc3)CC2)no1	-0.644
CN(CC(=O)Nc1ccccc1)CC(=O)Nc1ccc(F)cc1	13.5
CCC(=O)Nc1c2c(nn1-c1cccc(Cl)c1)CSC2	-0.778
O=C(Nc1nc(-c2ccccn2)cs1)C12CC3CC(CC(O)(C3)C1)C2	11.9
CN1C(=O)N(C)C2(c3ccccc3)NNC(N)=NC12c1ccccc1.Cl (stereo not shown)	5.36
Cc1cccc(C(CC(=O)O)n2cccc2)c1 (stereo not shown)	12.7
COC(=O)c1ccc(-c2csc(NC(=O)C3=COCCO3)n2)cc1	9.14
O=C(NC(Cc1ccccc1)C(=O)O)/C(=C/c1ccc([N+](=O)[O-])cc1)NC(=O)c1ccccc1 (stereo not shown)	10.9
[N-]=[N+]=NC[C@H](Cc1ccccc1)N1CC[C@@H](OCc2ccccc2)CCC1=O	6.37
COc1ccc(C2C3=C(CC(C)(C)CC3=O)N(CC(=O)O)C3=C2C(=O)CC(C)(C)C3)cc1OC	5.99
Cc1cccc(N=C2NC(=O)/C(=C/c3cn(C)c4ccccc34)S2)c1	15.8
CCc1nn(CC(=O)N2CCN(C)CC2)c(=O)c2cccn12	-1.06
O=C(NCCc1c[nH]c2ccccc12)C(=O)NCC(c1ccco1)N1CCN(c2ccccc2F)CC1 (stereo not shown)	-2.01

Structure (SMILES)	hERG current change (%, negative = inhibition) at 1uM [%]
CC(=O)NC1=NN(C(C)=O)C2(CCCC2)S1	11.3
CCc1cccc(C)c1NS(=O)(=O)c1cc(Br)cnc1N	15.8
COc1cc(/C=N/n2nnnc2Nc2ccccc2)cc(OC)c1OC	-1.79
CCNc1nc(C)cc(COC)c1C#N	-1.13
COC(=O)c1ccc(CN2CCC(CO)(CCOc3ccccc3)CC2)cc1	-81.7
CCCn1c(SCCC(=O)O)nc2ccccc21	8.31
CCOc1ccc2oc(C(=O)OCC(=O)NC(=O)NC3CCCC3)c(C)c2c1	4.93
COc1ccc(NC(=O)CN2CCN(S(=O)(=O)c3ccc(Cl)cc3)CC2)cc1	-64.1
COc1ccc(CNC(=O)CCCn2nc([N+](=O)[O-])cc2C)cc1	6.61
Cc1ccc(S(=O)(=O)N2CCCCC2C(=O)N2CCN(Cc3ccccc3)CC2)cc1.Cl (stereo not shown)	7.97
Cc1ccc(NC(=O)Cn2nnc(C(=O)Nc3ccc(F)c(Cl)c3)c2N)cc1	10.2
CC(=O)Oc1ccccc1C(=O)O	7.19
Cc1ncc(C[n+]2csc(CCO)c2C)c(N)n1.[Cl-]	11.4
Clc1ccc(-c2nc3ccccn3c2CN2CCCCC2)cc1	3.44
O=C(O)/C(=C/c1ccco1)NC(=O)c1ccc(Br)o1	14.9
O=C(c1ccco1)N1CCN(Cc2nnc(-c3cccc(Br)c3)o2)CC1	-51.6
CCN(CC(=O)Nc1ccccc1OC)C(=O)C1CCCC1	7.53
CN(C)C(Cc1ccc(C#N)cc1)C(=O)c1ccccc1 (stereo not shown)	6.46
